# From article PMC4336329 (PLoS ONE, 2015)
# Screen size: about 310,000 compounds; about 2,200 (0.71%) showed an effect of 50% or more. Effects have a minus sign here. This is one part of the list.
# Biological target: human ether-à-go-go-related gene (hERG) potassium channel (human, UniProt Q12809)
# Assay: primary screen, population patch clamp on CHO cells stably expressing hERG
# Chain of human ether-à-go-go-related gene (hERG) potassium channel (Q12809 whole entry, looked up): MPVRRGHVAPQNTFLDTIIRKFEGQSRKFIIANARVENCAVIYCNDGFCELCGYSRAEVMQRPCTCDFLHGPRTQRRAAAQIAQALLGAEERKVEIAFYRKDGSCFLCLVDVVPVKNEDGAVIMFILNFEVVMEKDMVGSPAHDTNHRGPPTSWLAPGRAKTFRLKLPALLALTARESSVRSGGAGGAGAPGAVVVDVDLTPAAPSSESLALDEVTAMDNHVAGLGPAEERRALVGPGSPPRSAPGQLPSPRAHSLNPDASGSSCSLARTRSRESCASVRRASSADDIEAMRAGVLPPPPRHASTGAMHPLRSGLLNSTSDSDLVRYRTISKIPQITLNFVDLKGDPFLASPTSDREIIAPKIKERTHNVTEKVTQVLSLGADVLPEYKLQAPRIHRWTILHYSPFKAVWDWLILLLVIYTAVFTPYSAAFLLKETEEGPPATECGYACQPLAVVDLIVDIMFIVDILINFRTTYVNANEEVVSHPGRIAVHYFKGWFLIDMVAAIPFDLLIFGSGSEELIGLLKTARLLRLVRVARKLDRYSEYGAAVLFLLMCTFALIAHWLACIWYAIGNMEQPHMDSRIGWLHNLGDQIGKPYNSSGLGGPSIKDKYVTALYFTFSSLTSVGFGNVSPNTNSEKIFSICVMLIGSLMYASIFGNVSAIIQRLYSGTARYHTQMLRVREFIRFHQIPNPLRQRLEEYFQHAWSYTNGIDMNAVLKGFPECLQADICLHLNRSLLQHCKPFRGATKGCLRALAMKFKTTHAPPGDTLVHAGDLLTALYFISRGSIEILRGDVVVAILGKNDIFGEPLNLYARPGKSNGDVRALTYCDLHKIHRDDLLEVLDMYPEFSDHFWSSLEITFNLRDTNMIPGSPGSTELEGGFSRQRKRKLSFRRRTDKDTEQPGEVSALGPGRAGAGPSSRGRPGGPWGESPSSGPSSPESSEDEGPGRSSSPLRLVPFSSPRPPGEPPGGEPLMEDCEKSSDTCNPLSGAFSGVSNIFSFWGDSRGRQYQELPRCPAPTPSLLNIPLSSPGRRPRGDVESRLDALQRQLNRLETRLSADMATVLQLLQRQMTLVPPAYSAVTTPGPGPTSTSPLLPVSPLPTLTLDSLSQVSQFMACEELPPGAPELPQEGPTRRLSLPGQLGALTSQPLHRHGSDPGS
row,Structure (SMILES),"hERG current change (%, negative = inhibition) at 1uM"
1,Oc1ccc(/C=N/n2cnn(Cc3ccccc3Cl)c2=S)c(O)c1,10.5%
2,O=S(=O)(NCc1ccco1)N1CCOCC1,8.35%
3,COc1ccc(C2=NOC(Cn3nc(-c4ccccc4C)cc3C(=O)O)C2)cc1 (stereo not drawn),1.1%
4,Cc1ccc(C(=O)Nc2cccc(S(=O)(=O)N3CCOCC3)c2)cc1[N+](=O)[O-],15.7%
5,O=C(Cn1cc2c(n1)CCCCC2)Nc1ccccc1Cl,3.09%
6,Cc1cc(C(F)(F)F)nn1Cc1n[nH]c(=S)n1Cc1ccccc1,1.45%
7,Cn1nc(-c2ccc(OCC(=O)NCC3CCCO3)cc2)c2ccccc2c1=O (stereo not drawn),-2.28%
8,O=C(O)CCC1(CCC(=O)O)c2ccccc2-c2ccccc21,7.08%
9,Cn1c(/C=C/c2cccc(Br)c2)nc2ccccc2c1=O,15%
10,Cc1ccsc1C(=O)OCC(=O)c1ccc[nH]1,6.23%
11,CC(=O)Nc1ccc(NC(=O)N2CCCCC2)cc1,0.414%
12,Cn1c(CN2CCOCC2)nnc1SCC(=O)Nc1nccs1,9.59%
13,CC(=O)c1ccc(N=C2NC(=O)C(CO)(CO)S2)cc1,3.27%
14,CC1CCN(S(=O)(=O)c2ccc(N/N=C(/C#N)C(N)=O)cc2)CC1,10.7%
15,CS(=O)(=O)c1ccc(NCCN2CCOCC2)c([N+](=O)[O-])c1,15.9%
16,Clc1ccc(CNCc2cccs2)c(Cl)c1,17.8%
17,Cc1ccc(/C=C2/SC(=S)N(CCC(=O)N3CCOCC3)C2=O)cc1,12.9%
18,COc1ccc(CC(O)COS(N)(=O)=O)cc1 (stereo not drawn),8.1%
19,COC(=O)c1sc(C(C)(C)C)cc1CSc1ccccc1,1.18%
20,CCCn1c(=O)c2c(c3ccccc31)OC(C)C(=O)N2 (stereo not drawn),1.1%
21,CCCCC1(C)OC(=O)C(=Cc2c[nH]c3ccccc23)C(=O)O1 (stereo not drawn),17.3%
22,Cc1nnc2nc(-c3ccccc3)nc(-c3ccccc3)n12,15.4%
23,Cc1c(NC(=O)c2csc3c2CCCC3)c(=O)n(-c2ccccc2)n1C,18%

row,Structure (SMILES),"hERG current change (%, negative = inhibition) at 1uM"
1,COP(=O)(/C=C/c1ccccc1)C(O)c1ccc(F)cc1 (stereo not drawn),9.55%
2,C=CCn1c(CNC(=O)c2ccccc2C)nnc1SCC(=O)NC1CCCC1,12.1%
3,CCOC(=O)CCc1c(C)c2ccc3c(c2oc1=O)CN(CCCO)CO3,16.7%
4,CCOC(=O)CCP(=O)(O)C(O)c1ccc(OC)cc1 (stereo not drawn),6.31%
5,CCOC(=O)N1CCN(S(=O)(=O)c2ccc(C)cc2)CC1,16.1%
6,O=C(O)c1ccccc1C(=O)NC1CCN(c2nccc(C(F)(F)F)n2)CC1,14.3%
7,CCOC(=O)N1CCN(C(=O)Cn2ccc3c(OC)cccc3c2=O)CC1,8.79%
8,c1ccc(CSc2nnc(NC3=NCCCCC3)s2)cc1,2.53%
9,Cc1ccc(C(=O)O)cc1N1C(=O)c2cccc3c([N+](=O)[O-])ccc(c23)C1=O,15.9%
10,CN(C1CCS(=O)(=O)C1)S(=O)(=O)c1cccc2nsnc12 (stereo not drawn),-7.83%
11,CCOC(=O)c1cc2c(ccn2C)n1CC(=O)N(CC)CC,13.9%
12,Cl.N#C/C(=C\c1ccccc1)C(=O)NCCN1CCOCC1,15.3%
13,CCn1nnc(-c2ccc(N)cc2)n1,13%
14,CCOc1cccc(-c2nnc3sc(COc4ccc(Cl)cc4)nn23)c1,9.26%
15,COc1cc(C(=O)NC(C)c2ccc(S(N)(=O)=O)cc2)ccc1OCC(=O)N1CCOCC1 (stereo not drawn),13%
16,CS(=O)(=O)N(CC(=O)NCc1ccccc1Cl)C1CCCCC1,10.4%
17,CC(C)n1c(N2CCN(S(=O)(=O)c3cccc([N+](=O)[O-])c3)CC2)nc2ccccc21,-21.3%
18,O=C(O)/C=C/C(=O)Nc1ccc(Oc2ccc(NC(=O)/C=C/C(=O)O)cc2)cc1,13.4%
19,COCCN(C(=O)CSc1nc2nc(C)cc(C)n2n1)c1c(N)n(Cc2ccccc2)c(=O)[nH]c1=O,20.9%
20,CC(C)OP(=O)(OC(C)C)C(Nc1ccc(C(=O)O)cc1)c1ccccc1 (stereo not drawn),10.6%
21,O=C1C(Cc2c[nH]c3ccccc23)NC(=S)N1C1CCCCC1 (stereo not drawn),10.7%
22,COc1ccc(C(=O)C[n+]2ccc3c(c2)nc(-c2ccc(OC)cc2OC)n3C)cc1.[Br-],4.76%
